Drawing on the RNAGym collection of RNA variant scans (doi:10.7554/elife.90254), this text covers self-cleavage for 20 variants.

Read counts are not given, so values of variants with three or more changes are uncertain.

B1: OR4K15 (parent)
chain: GUUAACGGUCAUAGGCCAUGGAAACUAGGAGCACCAUUUCGCUGCCAGUGAAGAAAUGAACAAAGAAAAUCUGGGCCAGGCAGGCAUCAAAAGAAAUAGUCUUGCGCUCAACCAGAAAGUCUGUAAUCAUUUUAAGGGUA

In the data set the parent is B1. Description: self-cleavage, relative activity (ratio to wild type); higher = more cleavage; in vitro, sequencing; the parent is a self-cleaving ribozyme.
GUUAACGGUCAUAGGCCUUGGAAACUAGGAGCACCAUUUCGCUGCCAGUGAAGAAAUGAACAAAGAAAAUCUGGGCCAGGCAGGCAUCAAGAGAAGUAGUCUUGCGCUCAACCAGAAAGUCUGUAAUCAUUUUAAGGGUA: the self-cleavage came out at 1.02. For GUUAACGGUCAUAGGCCUUGGAAACUAGGAGCACCAUUUCGCUGCCGGUGAAGAAAUGAACAAAGAAAAUCUGGGCCAGGCAGGCAUCAAAAGAAACAGUCUUGCGCCCAACCAGAAAGUCUGUAAUCAUUUUAAGGGUA the value was 0.02. For GUUAACGGUCAUAGGCCUUGGAAACUAGGAGCACCAUUUCGCUGCCAGUGAAGAAAUGAACAAAGAAAAUCUGGGCCAGGCAGGCAUCAAAAGAAAUAGUCUUGCGCUCAACCAGUAUGUCUGUAAUCAUUUUAAGGGUA the value was 0.1. For GUUAACGGUCAUAGGCCUUGGAAACUAGGAGCACCAUUUCGCUGCCAGUGGAGAAAUGAACAAAGAAAAUCUGGGCCAGGCGGGCAUCAAAAGAAAUAGUCUUGCGCUCAACCAGAAAGUCUGUAAUCAUUUUAAGGGUA the value was 0.93; for GUUAACGGUCAUAGGCCUUGGAAACUAGGAGCACCAUUUCGCUGCCAGUGAAGAAAUGAACAAAGAAAAUCUGGGCCAGGCAGGCAUCGAAAGAAAUAGUCUCGCGCUCAACCAGAAAGUCUGUAAUCAUUCUAAGGGUA, 0.1; for GUUAACGGUCAUAGGCCUUGGAAACUAGGAGCACCAUUUCGCUGCCAGUGUAGAAAUGAACAAAGAAAAUCUGGGCCAGGCAGGCAUCAAAAGAAAUAGUCUUGCGCUCAACCCGAAAGUCUGUAAUCAUUUUAAGGGUA, 0.04. With GUUAACGGUCAUAGGCCUUGGAAACUAGGAGCACCAUUUCGCUGCCUGUGAAGAAAUGAACAAAGAAAAUCUGGGCCAGGUAGGCAUCAAAAGAAAUAGUCUUGCGCUCAACCAGAAAGUCUGUAAUCAUUUUAAGGGUA, the self-cleavage turned out to be 0.14.

For GUUAACGGUCAUAGGCCUUGGAAACUAGGAGCACCAUUUCGCUGCCAGUGAAGAAAUGAACAAAGAAAAUCUGGGCCAGGCGGGCAUCAAAAGAAAUAGUCAUGCGCUCAACCAGAAAGCCUGUAAUCAUUUUAAGGGUA, the self-cleavage stood at 0.05. Turning to GUUAACGGUCAUAGGCCUUGGAAACUAGGAGCACCAUUUCGCUGCCAGUGUAGAAAUGAACAAAGAGAAUCUGGGCCAGGCAGGCAUCAAAAGAAAUAGUCUUGCGCUCAACCAGAAAGUCUGUAAUCAUUUUAAGGGUA, the self-cleavage amounted to 1.57. For GUUAACGGUCAUAGGCCUUGGAAACUAGGAGCACCAUUUCGCUGCCAGUGAAGAGAUGAACAAAGAAAAUUUGGGCCAGGCAGGCAUCAAAAGAAAUAGUCUCGCGCUCAACCAGAAAGUCUGUAAUCAUUUUAAGGGUA the value was 0.08. For GUUAACGGUCAUAGGCCUUGGAAACUAGGAGCACCAUUUCGCUGCCAGUGAAGAAAUGUACAAAGAAAAUCUGGGCCAGGCAGGCAUCAAAAGAAAUAGUCUUGCGCUCAGCCAGAAAGUCUGUAAUCAUUUUAAGGGUA the value was 0.08; for GUUAACGGUCAUAGGCCUUGGAAACUAGGAGCACCAUUUCGCUGCCAGUGAAGAAAUGAACAAAGAAUAUCUGGGCCAGGCAGGCAUCAAUAGAAAUAGUCUUGCGCUCAACCAGAAAGUCUGCGAUCAUUUUAAGGGUA, 1.22; for GUUAACGGUCAUAGGCCUUGGAAACUAGGAGCACCAUUUCGCUGCCAGUGAUGAAAUGAGCAAAGAAGAUCUGGGCCAGGCAGGCAUCAGAAGAAAUAAUCUUGCGCUCAACCAGGAAGUCUGUAAUCAUUUUAAGGGUA, 0.02.

With GUUAACGGUCAUAGGCCUUGGAAACUAGGGGCACCAUUUCGCUGCCAGUGAAGAAAUGAACAAAGAAAAUCUGGGCCAGGCAGGCAUCAAAAGAAAUAGUCUUGCGCUCAACCAGAAAGUCUGUAGUCAUUUUAAGGGUA, the self-cleavage worked out at 1.82.

For GUUAACGGUCAUAGGCCUUGGAAACUAGGAGCACCAUUUCGCUGCCAGUGAAGAAAUGAACAAAGAAAGUCCGGGCCAGGCAGGCAUCAAAAGAAAUAGUCUUGCGCUCAACCAGAAAGUCUGUAAUCAUUUUAAGGGUA, the self-cleavage was found to be 0.14.

GUUAACGGUCAUAGGCCUUGGAAACUAGGAGCGCCAUUUCGCUGCCAGUGAAGAAAUGAACAAAGAAAAUCUGGGCCAGGCAGGCAUCAAGAGAAAUAGUCUUGCGCUCAACCAGAAAGUCUGCAAUCAUUUUAAGGGUA: the self-cleavage was 0.29. For the variant GUUAACGGUCAUAGGCCUUGGAAACUAGGAGCACCAUUUCGCUGCCAGUGAAGAAAUGAACAAAGAAAAUCUGGGCCAGGCAGGCAUCAAAAGAAAUAGUCUUGCGCUCAACCUGAAAGUCUGUAAUCAUUUCAAGGGUA, the self-cleavage was found to be 0.19. For GUUAACGGUCAUAGGCCUUGGAAACUAGGAGCACCAUUUCGCUGCCAGUGAAGAAAUGAACAAAGAACAUCUGGGCCAGGCAGGCAUCAAAAGAAAUAGUCUUGCGCUCAUCCAGAAAGUCUGUAAUCAUUUUAAGGAUA the value was 0.03; for GUUAACGGUCAUAGGCCUUGGAAACUAGGAGCACCAUUUCGCUGCCGGUGAAGAAAUGAACAAAGAAAAUCUGGGCCAGGCAGGCAUCAAAAGAAAUAGUCUUGCGCCCAACCAGAAAGUCUGUAAUCAUUUUAAGGGUA, 0.01. For GUUAACGGUCAUAGGCCUUGGAAACUAGGAGCACCAUUUCGCUGCCAGUGAAGAAAUGAACAAAGAAAAUCUGGGCCAGGCAGGCAUCAAAAGAGAUAGUCUUGCGCUCAACCAGAAAGUCUAUAAUCAUUUUAAGGGUA the value was 2.21.
